This is one part of the list.
How the values were obtained:
Test in all cases: glycan array binding signal (z-score within array); higher = stronger binding
Conditions in all cases: glycan notation: IUPAC condensed, linker removed
[1] = molecular target: Neu5Ac(a2-6)Gal(b1-4)GlcNAc(b1-2)Man(a1-3)[Neu5Ac(a2-6)Gal(b1-4)GlcNAc(b1-2)Man(a1-6)]Man(b1-4)GlcNAc(b1-4)GlcNAc
Method in brief: (§1)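 Glycan array data were curated from 3228 arrays in the Consortium for Functional Glycomics database and kept only where the protein sequence was available. Glycan names were converted to IUPAC-condensed notation, and columns mapping to the same glycan were averaged. The binding signal is a within-array Z-score, averaged across arrays of the same protein sequence at different concentrations or buffers and across linkers. Negative Z-scores can be read as non-binding.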

[2] = molecular target: Neu5Ac(a2-6)Gal(b1-4)GlcNAc(b1-2)Man(a1-6)Man(b1-4)GlcNAc(b1-4)GlcNAc
Method in brief: as §1

[3] = molecular target: Neu5Ac(a2-6)Gal(b1-4)GlcNAc(b1-2)Man(a1-6)[Gal(b1-4)GlcNAc(b1-2)Man(a1-3)]Man(b1-4)GlcNAc(b1-4)GlcNAc
Method in brief: as §1

[4] = molecular target: Neu5Ac(a2-6)Gal(b1-4)GlcNAc(b1-2)Man(a1-6)[GlcNAc(b1-2)Man(a1-3)]Man(b1-4)GlcNAc(b1-4)GlcNAc
Method in brief: as §1

[5] = molecular target: Neu5Ac(a2-6)Gal(b1-4)GlcNAc(b1-2)Man(a1-6)[Man(a1-3)]Man(b1-4)GlcNAc(b1-4)GlcNAc
Method in brief: as §1

[6] = molecular target: Neu5Ac(a2-6)Gal(b1-4)GlcNAc(b1-3)Gal(b1-3)GlcNAc
Method in brief: as §1

[7] = molecular target: Neu5Ac(a2-6)Gal(b1-4)GlcNAc(b1-3)Gal(b1-4)GlcNAc
Method in brief: as §1

[8] = molecular target: Neu5Ac(a2-6)Gal(b1-4)GlcNAc(b1-3)Gal(b1-4)GlcNAc(b1-3)Gal(b1-4)GlcNAc
Method in brief: as §1

[9] = molecular target: Neu5Ac(a2-6)Gal(b1-4)GlcNAc(b1-3)Gal(b1-4)[Fuc(a1-3)]GlcNAc(b1-3)Gal(b1-4)[Fuc(a1-3)]GlcNAc
Method in brief: as §1

[10] = molecular target: Neu5Ac(a2-6)Gal(b1-4)GlcNAc(b1-3)GalNAc
Method in brief: as §1

[11] = molecular target: Neu5Ac(a2-6)Gal(b1-4)GlcNAc6S
Method in brief: as §1

[12] = molecular target: Neu5Ac(a2-6)GalNAc
Method in brief: as §1

[13] = molecular target: Neu5Ac(a2-6)GalNAc(b1-4)GlcNAc
Method in brief: as §1

[14] = molecular target: Neu5Ac(a2-6)GlcNAc(b1-4)GlcNAc
Method in brief: as §1

[15] = molecular target: Neu5Ac(a2-6)GlcNAc(b1-4)GlcNAc(b1-4)GlcNAc
Method in brief: as §1

[16] = molecular target: Neu5Ac(a2-8)Neu5Ac
Method in brief: as §1

[17] = molecular target: Neu5Ac(a2-8)Neu5Ac(a2-3)Gal(b1-3)GalNAc(b1-4)[Neu5Ac(a2-8)Neu5Ac(a2-3)]Gal(b1-4)Glc
Method in brief: as §1

[18] = molecular target: Neu5Ac(a2-8)Neu5Ac(a2-3)Gal(b1-4)Glc
Method in brief: as §1

[19] = molecular target: Neu5Ac(a2-8)Neu5Ac(a2-3)[Gal(b1-3)GalNAc(b1-4)]Gal(b1-4)Glc
Method in brief: as §1

[20] = molecular target: Neu5Ac(a2-8)Neu5Ac(a2-3)[GalNAc(b1-4)]Gal(b1-4)Glc
Method in brief: as §1

[21] = molecular target: Neu5Ac(a2-8)Neu5Ac(a2-8)Neu5Ac
Method in brief: as §1

[22] = molecular target: Neu5Ac(a2-8)Neu5Ac(a2-8)Neu5Ac(a2-3)Gal(b1-4)Glc
Method in brief: as §1

[23] = molecular target: Neu5Ac(a2-8)Neu5Ac(a2-8)Neu5Ac(a2-3)[GalNAc(b1-4)]Gal(b1-4)Glc
Method in brief: as §1

[24] = molecular target: Neu5Ac(a2-8)Neu5Ac(a2-8)Neu5Ac(a2-8)Neu5Ac(a2-3)[GalNAc(b1-4)]Gal(b1-4)Glc
Method in brief: as §1

[25] = molecular target: Neu5Ac(b1-6)GalNAc
Method in brief: as §1

[26] = molecular target: Neu5Ac(b2-6)Gal(b1-4)GlcNAc
Method in brief: as §1

[27] = molecular target: Neu5Ac(b2-6)GalNAc
Method in brief: as §1

[28] = molecular target: Neu5Ac9Ac(a2-3)Gal(b1-3)GlcNAc
Method in brief: as §1

[29] = molecular target: Neu5Ac9Ac(a2-3)Gal(b1-4)GlcNAc
Method in brief: as §1

[30] = molecular target: Neu5Ac9Ac(a2-6)Gal(b1-4)GlcNAc
Method in brief: as §1

[31] = molecular target: Neu5Gc(a2-3)Gal(b1-3)GlcNAc
Method in brief: as §1

[32] = molecular target: Neu5Gc(a2-3)Gal(b1-3)[Fuc(a1-4)]GlcNAc
Method in brief: as §1

[33] = molecular target: Neu5Gc(a2-3)Gal(b1-4)Glc
Method in brief: as §1

[34] = molecular target: Neu5Gc(a2-3)Gal(b1-4)GlcNAc
Method in brief: as §1

[35] = molecular target: Neu5Gc(a2-3)Gal(b1-4)[Fuc(a1-3)]GlcNAc
Method in brief: as §1

[36] = molecular target: Neu5Gc(a2-6)Gal(b1-4)GlcNAc
Method in brief: as §1

[37] = molecular target: Neu5Gc(a2-6)GalNAc
Method in brief: as §1

[38] = molecular target: Neu5Gc(b2-6)Gal(b1-4)GlcNAc
Method in brief: as §1

B1: F17aG (Escherichia coli), Q99003 (protein)
chain: MTNFYKVFLAVFILVCCNISQAAVSFIGSTENDVGPSLGSYSRTHAMDNLPFVYDTRNKIGYQNANVWHISKGFCVGLDGKVDLPVVGSLDGQSIYGLTEEVGLLIWMGDTKYSRGTAMSGNSWENVFSGWCVGANTASTQGLSVRVTPVILKRNSSARYSVQKTSIGSIRMRPYNGSSAGSVQTTVNFSLNPFTLNDTVTSCRLLTPSAVNVSLAAISAGQLPSSGDEVVAGTTSLKLQCDAGVTVWATLTDATTPSNRSDILTLTGASTATGVGLRIYKNTDSTPLKFGPDSPVKGNENQWQLSTGTETSPSVRLYVKYVNTGEGINPGTVNGISTFTFSYQ
glycan array binding signal (z-score) [1]: -0.153 | glycan array binding signal (z-score) [2]: -0.167 | glycan array binding signal (z-score) [3]: -0.147 | glycan array binding signal (z-score) [4]: -0.156 | glycan array binding signal (z-score) [5]: -0.153 | glycan array binding signal (z-score) [6]: -0.16 | glycan array binding signal (z-score) [7]: -0.239 | glycan array binding signal (z-score) [8]: -0.134 | glycan array binding signal (z-score) [9]: -0.253 | glycan array binding signal (z-score) [10]: -0.17 | glycan array binding signal (z-score) [11]: -0.2 | glycan array binding signal (z-score) [12]: 0.165 | glycan array binding signal (z-score) [13]: -0.218 | glycan array binding signal (z-score) [14]: -0.171 | glycan array binding signal (z-score) [15]: -0.161 | glycan array binding signal (z-score) [16]: -0.078 | glycan array binding signal (z-score) [17]: -0.145 | glycan array binding signal (z-score) [18]: -0.254 | glycan array binding signal (z-score) [19]: -0.053 | glycan array binding signal (z-score) [20]: -0.256 | glycan array binding signal (z-score) [21]: -0.234 | glycan array binding signal (z-score) [22]: -0.25 | glycan array binding signal (z-score) [23]: -0.248 | glycan array binding signal (z-score) [24]: -0.227 | glycan array binding signal (z-score) [25]: -0.34 | glycan array binding signal (z-score) [26]: 0.235 | glycan array binding signal (z-score) [27]: -0.164 | glycan array binding signal (z-score) [28]: -0.156 | glycan array binding signal (z-score) [29]: -0.164 | glycan array binding signal (z-score) [30]: -0.185 | glycan array binding signal (z-score) [31]: -0.049 | glycan array binding signal (z-score) [32]: -0.259 | glycan array binding signal (z-score) [33]: -0.243 | glycan array binding signal (z-score) [34]: -0.191 | glycan array binding signal (z-score) [35]: -0.246 | glycan array binding signal (z-score) [36]: -0.265 | glycan array binding signal (z-score) [37]: -0.233 | glycan array binding signal (z-score) [38]: -0.172

Reference: the supplement of paper PMC8728848
